# Measurements published in PubChem BioAssay AID485294 (National Center for Advancing Translational Sciences (NCATS), 2010).
# Among all 370,000 compounds or so, about 150 (0.041%) were called active. Inconclusive results, whose numbers are uncertain, are shown with a selection of clear calls. Calls follow the shape of the dose curve; as a rule, active = well fitted inhibition curve with a large enough effect; inconclusive = small, poorly fitted or top-dose-only effect; inactive = flat fitted curve, though single readings scatter. Potencies of inconclusive entries are left out as doubtful fits.
# Molecular target: Beta-lactamase (Escherichia coli (strain K12)) (UniProt P00811)
# Sequence of UniProt P00811 (P00811 whole entry, looked up): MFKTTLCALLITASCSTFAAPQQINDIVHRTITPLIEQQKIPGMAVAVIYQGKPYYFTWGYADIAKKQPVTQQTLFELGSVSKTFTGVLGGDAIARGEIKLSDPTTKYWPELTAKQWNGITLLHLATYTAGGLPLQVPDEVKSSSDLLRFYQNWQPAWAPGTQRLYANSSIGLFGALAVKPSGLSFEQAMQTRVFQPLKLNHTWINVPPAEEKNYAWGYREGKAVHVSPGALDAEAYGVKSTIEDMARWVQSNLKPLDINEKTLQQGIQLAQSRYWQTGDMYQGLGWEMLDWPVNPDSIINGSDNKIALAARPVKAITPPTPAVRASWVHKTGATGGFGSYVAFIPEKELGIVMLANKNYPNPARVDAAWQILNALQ
# Assay: qHTS Inhibitors of AmpC Beta-Lactamase (assay with detergent); also: nearly all actives have a fitted effect of over 25% in size
# Conditions: AmpC hydrolysis of nitrocefin, absorbance 480 nm, 0.01% Triton; series mostly up to 114 µM
# Summary of the method: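 20 mM phosphate pH 7.0 + 0.01% (detergent screen) or 0.0001% Triton X-100; 5.3 nM AmpC reagent; cpd preinc 15 min RT; nitrocefin (800 uM stock) to start; A480 q20 s × 4 min; Activity was normalised to no-enzyme and no-compound control wells.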
# Potency is read from the fitted curve at half-maximal effect; tags tell the direction and shape of the fitted curve.
row,Structure (SMILES),Potency
1,CC1CCC/C(=C\Nc2ccccc2C(=O)O)C1=O (stereo not drawn),inactive
2,COc1ccc(C(C)NC(=O)Cc2ccc(Br)cc2)cc1 (stereo not drawn),"inconclusive [inhibitor, single point]"
3,COc1ccc(NC(=O)CSc2nc(-c3ccc(OC)cc3)cc(=O)[nH]2)cc1,inactive
4,Cc1cc(C)c2c(=O)n(CC(=O)N3CCC(Cc4ccccc4)CC3)sc2n1,"inconclusive [inhibitor, full curve]"
5,Nc1c(S(=O)(=O)c2cccs2)c2nc3ccccc3nc2n1/N=C/c1cccc(O)c1,inactive
6,Fc1cccc(NCc2ccoc2)c1,"inconclusive [inhibitor, partial curve]"
7,O=C(Nc1ccccc1N1CCCC1)C1=COCCO1,"inconclusive [inhibitor, full curve, poor fit]"
8,C[N+]1(C)C2CCC1CC(OC(=O)C(CO)c1ccccc1)C2 (stereo not drawn),"inconclusive [inhibitor, single point]"
9,O=C(CN(c1cccc(C(F)(F)F)c1)S(=O)(=O)c1ccc(Cl)c([N+](=O)[O-])c1)NCc1ccc(F)cc1,"inconclusive [inhibitor, full curve, poor fit]"
10,S=c1[nH]c2ccccc2[nH]1,"inconclusive [inhibitor, partial curve]"
11,COc1ccc(CN2CCNC(=O)C2CC(=O)N(C)CCC2CCOCC2)cc1OC (stereo not drawn),"inconclusive [inhibitor, full curve, poor fit]"
12,COC(=O)C1=C(c2ccccc2OCc2ccccc2)C[C@@H]2CC[C@H]1N2C(=O)NCCOc1ccc(OC)cc1,inactive
13,CC(=O)Nc1ccc(OC(=O)N(C)c2ccccc2)cc1,"inconclusive [inhibitor, full curve, poor fit]"
14,CC(=O)c1c(C)[nH]c(C(=O)Nc2cc(F)ccc2C)c1C,"inconclusive [inhibitor, full curve, poor fit]"
15,Cc1cccc(NC(=S)N(CCCN2CCOCC2)C(C)c2cc3ccccc3o2)c1C (stereo not drawn),"inconclusive [inhibitor, single point]"
16,CC1CCN(CC(=O)Nc2ccc(Cl)cc2[N+](=O)[O-])CC1,inactive
17,COc1ccc(N2CCN(C(=O)CSc3nnnn3-c3ccc4c(c3)OCCO4)CC2)cc1,"inconclusive [inhibitor, full curve, poor fit]"
18,CC1Sc2ccc(S(=O)(=O)CCC(=O)NCc3cccs3)cc2NC1=O (stereo not drawn),"inconclusive [inhibitor, full curve, poor fit]"
19,C/C(=C\c1ccccc1)C(=O)NCCCn1ccnc1,"inconclusive [inhibitor, partial curve]"
20,COc1cccc(NC(=O)c2nc(S(C)(=O)=O)ncc2Cl)c1,inactive
21,Cn1c(COc2ccc(Cl)cc2)nnc1SCc1ncc(-c2ccccc2)o1,inactive
22,Cc1ccc(Cn2cc(C(=O)c3ccc(C)cc3)c(=O)c3ccc(C)nc32)cc1,inactive
23,C/C(=N\NC(=O)c1ccccc1O)C1C(=O)c2ccccc2C1=O,inactive

row,Structure (SMILES),Potency
1,COc1ccc(C(=O)NNC(=O)CN2CCC(n3nnc4cc(F)ccc43)CC2)cc1,"inconclusive [inhibitor, partial curve]"
2,Fc1ccc(OCCCCN2CCOCC2)cc1,"inconclusive [inhibitor, single point]"
3,O=C(NCC(F)(F)F)Nc1ncccn1,"inconclusive [inhibitor, full curve, poor fit]"
4,COc1ccc2c(c1)CC/C(=C/c1ccco1)C2=O,"inconclusive [inhibitor, full curve, poor fit]"
5,COc1cccc(-c2nnc(NC(=O)c3ccc(Cl)s3)o2)c1,"inconclusive [inhibitor, partial curve]"
6,N#Cc1cc2c(nc1SCC(O)CS(=O)(=O)Cc1ccccc1)CCCC2 (stereo not drawn),"inconclusive [inhibitor, full curve]"
7,CCc1ccc(NC(=O)CC2C(=O)N(c3ccc(C)cc3)C(=O)N2CCc2ccncc2)cc1 (stereo not drawn),"inconclusive [inhibitor, single point]"
8,COc1ccc(OC)c(-n2c(SCC(=O)NCc3ccco3)nnc2-c2c[nH]c3ccccc23)c1,"inconclusive [inhibitor, full curve, poor fit]"
9,COc1cccc(N2C(=O)C(CC(=O)Nc3ccc(F)cc3)N(CCC3=CCCCC3)C2=O)c1 (stereo not drawn),inactive
10,CCn1c(=O)c(=O)n(CC)c2cc(S(=O)(=O)Nc3cc(C)ccc3C)ccc21,inactive
11,O=C(C1CCCN(S(=O)(=O)c2cccc3nsnc23)C1)N1CCc2ccccc2C1 (stereo not drawn),"inconclusive [inhibitor, partial curve, poor fit]"
12,CCN(CC)S(=O)(=O)c1cccc(C(=O)Oc2cccc(NC(=O)c3cccs3)c2)c1,"inconclusive [inhibitor, full curve]"
13,COc1ccc(-c2cc3ccccc3oc2=O)cc1NC(=S)NC(=O)c1ccc2c(c1)OCCO2,"inconclusive [inhibitor, partial curve]"
14,CCc1c(C)c2ccc(O)c(CN(C)C)c2oc1=O,"inconclusive [inhibitor, full curve, poor fit]"
15,COCCN(C(=O)Cn1nnc2ccccc21)C(C(=O)NC1CCCCC1)c1ccc(OC)cc1OC (stereo not drawn),"inconclusive [inhibitor, partial curve, poor fit]"
16,Cc1ccccc1/C=C\c1nc2ccccc2c(=O)n1Cc1ccccc1,"inconclusive [inhibitor, full curve, poor fit]"
17,O=C(CNC(=O)c1ccc(Cl)cc1Cl)OCc1nc2ccccc2s1,"inconclusive [inhibitor, single point]"
18,c1ccc(CNc2nc(N3CCOCC3)nc(N3CCOCC3)n2)cc1,"inconclusive [inhibitor, partial curve]"
19,O=C(CSc1nnc(CNc2ccccc2)o1)N1CCN(C(=O)c2ccco2)CC1,"inconclusive [inhibitor, single point]"
20,COCC(=O)N(Cc1ccccc1)c1ccccn1,"inconclusive [inhibitor, partial curve]"
21,N#Cc1nc(COc2ccccc2Cl)oc1NCc1cccnc1,inactive
22,CN1C(=O)C(O)(C2CCCCCC2=O)c2ccccc21 (stereo not drawn),"inconclusive [inhibitor, full curve]"
23,COC(=O)[C@H](Cc1ccccc1)NC(=O)C1CCN(C(=O)[C@H](C)NS(=O)(=O)c2ccc(C)cc2)CC1,inactive

row,Structure (SMILES),Potency
1,COc1ccc(/C=C/C(=O)N2CCC(c3nc4ccccc4o3)CC2)cc1,inactive
2,COc1cc(OC)c(NC(=O)CC(C)=O)cc1Cl,"inconclusive [inhibitor, full curve, poor fit]"
3,Oc1cnc2ccccc2c1CN1CCOCC1,"inconclusive [inhibitor, single point]"
4,CC[C@H](C)[C@H](NS(=O)(=O)c1ccc(C)cc1)C(=O)N1CCC(C(=O)N[C@H](C(=O)O)C(C)C)CC1,"inconclusive [inhibitor, full curve]"
5,CCOC(=O)Cc1cnc(NC(=O)CSc2nc(C)cc(C)n2)s1,inactive
6,Cc1ccc(-c2cc(C(F)F)nc(NCc3cccs3)n2)cc1,"inconclusive [inhibitor, single point]"
7,COc1ccc(OCC(=O)NCc2ccc(Cl)cc2)cc1,inactive
8,CC1CCc2nc(NC(=O)c3ccco3)sc2C1 (stereo not drawn),"inconclusive [inhibitor, full curve]"
9,COc1cccc(CN2CCN(Cc3ccon3)CC2CCO)c1 (stereo not drawn),inactive
10,CC(Cc1ccccc1)NC(=O)C(c1ccc(N)cc1)c1ccc(N)cc1 (stereo not drawn),"inconclusive [inhibitor, full curve, poor fit]"
11,COc1ccc(-c2cc3nc(C)c(CCC(=O)Nc4ccc(F)cc4F)c(C)n3n2)c(OC)c1,inactive
12,COc1ccc(CC(=O)O/N=C(\N)Cc2cccc3ccccc23)cc1,"inconclusive [inhibitor, full curve, poor fit]"
13,COc1ccccc1-c1c(C#N)c(N)nc2c1CCc1ccccc1-2,"inconclusive [inhibitor, full curve, poor fit]"
14,Cn1nc(C(=O)Nc2cccc(C(F)(F)F)c2)ccc1=O,"inconclusive [inhibitor, partial curve]"
15,O=C(Cn1c(=O)cnc2ccccc21)Nc1cccc(S(=O)(=O)N2CCCCC2)c1,"inconclusive [inhibitor, full curve]"
16,OCC[C@@H]1C[C@@H](O)[C@H](O)[C@]2(CCc3ccccc3CO2)O1,"inconclusive [inhibitor, partial curve, poor fit]"
17,COc1ccc(C(=O)Nc2nnc(S(=O)(=O)N3CCN(c4ccc(C)cc4)CC3)s2)cc1,inactive
18,CC(=O)c1c(C)n(C2CCCCC2)c2ccc(O)cc12,inactive
19,O=C(N=Nc1c(O)[nH]c2ccc([N+](=O)[O-])cc12)c1ccccc1Cl,"inconclusive [inhibitor, partial curve, poor fit]"
20,COC(=O)C1=C(c2ccc(OCc3ccccc3)cc2)C[C@@H]2CC[C@H]1N2C(=O)NCc1ccc(N(C)C)cc1,inactive
21,Cc1cccc(NC(=O)C(=O)NCCCc2ccccc2)c1,"inconclusive [inhibitor, partial curve, poor fit]"
22,CCCC(O)(c1ccc(Cl)cc1)C(CN1CCOCC1)c1ccccc1 (stereo not drawn),"inconclusive [inhibitor, full curve, poor fit]"
